Data on 7 molecules can be found in US20190330336A1 (SUTRO BIOPHARMA, published 2019).

B1: SRP1558-F01 (scFv)
chain: EVQLLESGGGLVQPGGSLRLSCAASGFTFPDSSMSWVRQAPGKGLEWVGVITDNSGNTDYADSVKGRFTISRDNSKNTLYLQMNSLRAEDTAVYYCAKVFEGGVRPYSDYWGQGTLVTVSSGGGGSGGGGSGGGGSEIVLTQSPGTLSLSPGERATLSCRASQSVSSGNPAWYQQKPGQAPRLLIYGASSRATGIPDRFSGSGSGTDFTLTISRLEPEDFAVYYCQQYTAGPPTFGQGTKVEIKAAGSDQ[human IgG1 Fc with changes cut from this listing]
B2: SRP1448-D09 (scFv)
chain: EVQLLESGGGLVQPGGSLRLSCAASGFTFTDSSMSWVRQAPGKGLEWVGVITGNSGTTDYADSVKGRFTISRDNSKNTLYLQMNSLRAEDTAVYYCAKVYEGGVRPYSDYWGQGTLVTVSSGGGGSGGGGSGGGGSEIVLTQSPGTLSLSPGERATLSCRASQSVSSSYLAWYQQKPGQAPRLLIYGASSRATGIPDRFSGSGSGTDFTLTISRLEPEDFAVYYCQQDTAGPPTFGQGTKVEIKAAGSDQ[human IgG1 Fc with changes cut from this listing]
B3: SRP1627-B01 (scFv)
scFv-Fc: QVQLVQSGAEVKKPGSSVKVSCKASGFNITDLYMHWVRQAPGQGLEWIARIDPWNGDTEYAPKFQGRATITADESTSTAYMELSSLRSEDTAVYYCIASEMVDYWGQGTLVTVSSGGGGSGGGGSGGGGSDVVMTQSPLSLPVTLGQPASISCKSSQSLLDSDGKTYLNWFQQRPGQSPRRLIYLVSKLDSGVPDRFSGSGSGTDFTLKISRVEAEDVGVYYCSTYSHFPQTFGQGTKVEIKAAGSDQ[human IgG1 Fc with changes cut from this listing]
B4: SRP1627-A02 (scFv)
chain: QVQLVQSGAEVKKPGSSVKVSCKASGFNINDYFMHWVRQAPGQGLEWIARIDPWNGDTEYAPKFQGRVTITADESTSTAYMELSSLRSEDTAVYYCGMSDALDYWGQGTLVTVSSGGGGSGGGGSGGGGSDVVMTQSPLSLPVTLGQPASISCKSSQSLLDSDGKTYLNWFQQRPGQSPRRLIYLVSKLDSGVPDRFSGSGSGTDFTLKISRVEAEDVGVYYCSHGNPVPQTFGQGTKVEIKAAGSDQ[human IgG1 Fc with changes cut from this listing]
B5: SRP1627-A11 (scFv)
scFv-Fc: QVQLVQSGAEVKKPGSSVKVSCKASGFNINDYFMHWVRQAPGQGLEWIARIDPWNGDTEYAPKFQGRVTITADESTSTAYMELSSLRSEDTAVYYCGMSDALDYWGQGTLVTVSSGGGGSGGGGSGGGGSDVVMTQSPLSLPVTLGQPASISCKSSQSLLDSDGKTYLNWFQQRPGQSPRRLIYLVSKLDSGVPDRFSGSGSGTDFTLKISRVEAEDVGVYYCWHGINFPQTFGQGTKVEIKAAGSDQ[human IgG1 Fc with changes cut from this listing]
B6: h5G11-2 (scFv)
scFv-Fc: QVQLVQSGAEVKKPGSSVKVSCKASGFNIKDYYMHWVRQAPGQGLEWIAWIDPENGDTEYAPKFQGRVTITADESTSTAYMELSSLRSEDTAVYYCNAPDALDYWGQGTLVTVSSGGGGSGGGGSGGGGSDVVMTQSPLSLPVTLGQPASISCKSSQSLLDSDGKTYLNWFQQRPGQSPRRLIYLVSKLDSGVPDRFSGSGSGTDFTLKISRVEAEDVGVYYCWQGSHFPQTFGQGTKVEIKAAGSDQ[human IgG1 Fc with changes cut from this listing]
notes: also called humanized antibody h5G11-2
B7: SRP1558-A06 (scFv)
chain: EVQLLESGGGLVQPGGSLRLSCAASGFTFSESTMSWVRQAPGKGLEWVGFITSDSGTTDYADSVKGRFTISRDNSKNTLYLQMNSLRAEDTAVYYCAKVFEGGVRPFSDYWGQGTLVTVSSGGGGSGGGGSGGGGSEIVLTQSPGTLSLSPGERATLSCRASQSVSSNPLAWYQQKPGQAPRLLIYGASSRATGIPDRFSGSGSGTDFTLTISRLEPEDFAVYYCQQYMAGPPTFGQGTKVEIKAAGSDQ[human IgG1 Fc with changes cut from this listing]

In one assay the target is T1, human LAG3 expressed on the cell surface of CHO or HEK293T cells (human, UniProt P18627 23-525).
T1 construct: also called CHO-LAG3; 293T-LAG3
T1 sequence: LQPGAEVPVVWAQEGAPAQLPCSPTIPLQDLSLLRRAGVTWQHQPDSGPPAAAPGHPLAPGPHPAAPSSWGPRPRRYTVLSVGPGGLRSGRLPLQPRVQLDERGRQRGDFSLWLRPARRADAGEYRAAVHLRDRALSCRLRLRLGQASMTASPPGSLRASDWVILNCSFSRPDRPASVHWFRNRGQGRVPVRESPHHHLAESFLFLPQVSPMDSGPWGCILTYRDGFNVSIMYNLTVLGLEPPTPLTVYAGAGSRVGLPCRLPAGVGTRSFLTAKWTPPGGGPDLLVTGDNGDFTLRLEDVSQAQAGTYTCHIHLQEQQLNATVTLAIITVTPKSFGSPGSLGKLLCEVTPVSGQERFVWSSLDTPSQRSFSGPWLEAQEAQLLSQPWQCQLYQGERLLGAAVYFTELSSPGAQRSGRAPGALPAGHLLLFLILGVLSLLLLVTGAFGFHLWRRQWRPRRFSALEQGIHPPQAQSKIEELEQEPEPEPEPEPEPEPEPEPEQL
Briefly: flow cytometry on 293T cells expressing human LAG3. The procedure: Antibody variants were tested in a fluorescence-activated cell sorting (FACS) cell-binding assay. Chinese Hamster Ovary (CHO) cells or HEK293T cells stably expressing the human target molecule LAG3 on the cell surface (CHO-LAG3, 293T-LAG3) were used to screen for cell binders by flow cytometry. Parental CHO or 293T cells were used as a negative control to determine background-binding levels. Cells were cultured in RPMI with 10% FCS Penicillin/Streptomycin (or Pen/Strep) and glutamine (or Gln) and split every 3-4 days at 10⁵ cells/ml.
A mix of parental CHO cells and CHO-LAG3 cells (or 293T and 293T-LAG3 cells) was prepared as follows: Parental CHO cells were washed 2× in PBS then incubated in PBS containing 1 nM CellTrace™ Oregon Green488® (Life Technologies) at 37° C. for 30 minutes. […] Parental CHO cells and CHO-LAG3 cells were then mixed to obtain a 1:1 cell suspension and seeded at 100 μl per well on 96 well polypropylene plates. Plates were spun at 1500 rpm for 5 minutes and cell pellets were suspended in 50 μl FACS buffer containing 6-12 point dilutions of anti-LAG3 variants starting from concentrations of ˜100-200 nM antibody, dispensed using BioMekFX (Beckman Coulter). Cells were then incubated on ice for 1 hr, washed with FACS buffer and incubated for 1 hr on ice with 50 μl FACS buffer containing 2.5 μg/ml R-Phycoerythrin-conjugated Goat Anti-Human IgG (Jackson ImmunoResearch) or AF647-conjugated Goat Anti-mouse IgG (Life Technologies) dispensed using BioMekFX (Beckman Coulter). Cells were then washed 2× with FACS buffer and fixed for 10 minutes in 200 μl PBS with 2% PFA prior to fluorescence detection. Samples were acquired using a Beckton Dickinson LSRII FACS. Mean Fluorescence Intensity of LAG3 antibody binding was analyzed using Tree Star, Inc. FlowJo® software.
On the technique in general: A flow cytometer gives signals particle by particle.
On to B1, for which the Kd (usually the free concentration of one partner at which half of the binding sites on the other are occupied at equilibrium, for simple one-to-one binding) came out at 0.5 nM.

B2 yielded a Kd of 0.4 nM.

B3: binding was characterised by a dissociation constant (Kd) of 0.19 nM.

The molecule B4 returned a Kd of 0.97 nM.

The molecule B5 came in with a Kd of 0.74 nM.

Molecule B6 registered a dissociation constant (Kd) of 78 nM.

The next assay has as its target T2, human LAG3-Fc, R&D Systems #2319-L3 (human, UniProt P18627 23-450).
T2 construct: Bought protein; also called Human LAG3 (Biacore); not shown: human Fc of the bought fusion protein
T2 sequence: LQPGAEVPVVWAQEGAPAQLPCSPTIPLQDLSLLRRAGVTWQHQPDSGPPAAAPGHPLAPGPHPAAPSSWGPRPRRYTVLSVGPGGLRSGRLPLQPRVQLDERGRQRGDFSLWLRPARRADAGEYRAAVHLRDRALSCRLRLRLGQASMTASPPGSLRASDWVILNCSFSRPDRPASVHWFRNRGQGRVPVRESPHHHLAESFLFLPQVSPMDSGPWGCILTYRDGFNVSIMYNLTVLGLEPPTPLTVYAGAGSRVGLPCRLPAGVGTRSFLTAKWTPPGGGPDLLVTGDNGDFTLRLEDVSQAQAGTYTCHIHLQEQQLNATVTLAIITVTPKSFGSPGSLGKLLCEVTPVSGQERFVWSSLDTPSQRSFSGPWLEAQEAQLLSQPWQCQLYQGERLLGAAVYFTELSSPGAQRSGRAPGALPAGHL
The experiment in a line: SPR (Biacore), antibody captured on anti-Flag chip, human LAG3-Fc analyte, 25 C, 1:1 fit. The method, then:
Anti-Flag M2 IgG (Sigma-Aldrich # F9291) was immobilized onto a CMS chip (GE Life Sciences) using amine coupling chemistry (from Amine Coupling Kit, GE Life Sciences). The immobilization steps were carried out at a flow rate of 25 μL/min in 1×HBS-EP+ buffer (GE Life Sciences; 10× Stock diluted before use). The sensor surfaces were activated for 7 min with a mixture of NHS (0.05 M) and EDC (0.2 M). The Anti-Flag M2 IgG was injected over all 4 flow cells at a concentration of 25 μg/mL in 10 mM sodium acetate, pH 4.5, for 7 min. Ethanolamine (1 M, pH 8.5) was injected for 7 min to block any remaining activated groups. An average of 12,000 response units (RU) of capture antibody was immobilized on each flow cell.
Off-rate and Kinetic binding experiments were performed at 25° C. using 1×HBS-EP+ buffer. Test and control antibodies were injected over the Anti-Flag surface at concentrations of 5-10 μg/mL for 12 seconds at a flow rate of 10 μL/min on flow cells 2, 3 and 4, followed by a buffer wash for 30 seconds at the same flow rate. Kinetic characterization of antibody samples was carried out with a single concentration of antigen (for off-rate ranking) or a dilution series of antigen (for kinetic characterization) and 1 injection of 0 nM antigen. After capturing ligand (antibody) on the anti-Flag surface, the analyte (human LAG3-Fc, R&D Systems #2319-L3; or cynomolgus LAG3-Fc, accession #NC_022282.1) was bound at 50, 25, 12.5, 6.25, and 0 nM for 180 seconds, followed by a 600 second dissociation phase at a flow rate of 50 μl/min. Between each ligand capture and analyte binding cycle, regeneration was carried out using 2 injections of 10 mM glycine pH 2.0 for 30 seconds at 30 μL/min, followed by a 30 second buffer wash step.
The data were fit with the Biacore T200 Evaluation software, using a 1:1 Langmuir binding model. KD (affinity, nM) was determined as a ratio of the kinetic rate constants calculated from the fits of the association and dissociation phases.
For orientation: Surface plasmon resonance follows binding to a sensor surface in real time, without labels.
For the molecule B1, the equilibrium dissociation constant (Kd) is 24 nM, the koff (usually the first-order rate constant of dissociation) was determined as 0.011 s⁻¹ and the on-rate (kon) (usually a measure of how fast the partners come together) was found to be 435000 M⁻¹ s⁻¹.

Take B3: binding was characterised by a dissociation constant (Kd) of 14.7 nM, the off-rate constant (koff) turned out to be 0.0152 s⁻¹ and the kon stood at 1.04e+06 M⁻¹ s⁻¹.

Turning to B5, the Kd amounted to 13.5 nM, the koff turned out to be 0.00422 s⁻¹ and the kon was found to be 312000 M⁻¹ s⁻¹.

B6 returned a Kd of 863 nM, a dissociation rate constant (koff) of 0.0023 s⁻¹ and an on-rate constant (kon) of 2670 M⁻¹ s⁻¹.

For the molecule B7, binding was characterised by a dissociation constant (Kd) of 13 nM, the koff was found to be 0.0099 s⁻¹ and the kon is 790000 M⁻¹ s⁻¹.

A further assay addresses T3, HIS-tagged (ACRO) or biotinylated recombinant human LAG3 protein (human, UniProt P18627 23-450, HIS tag or biotin, position not stated).
T3 construct: Soluble bought protein; also called rhLAG3
T3 sequence: T2 sequence
Briefly: FACS competition: antibody inhibits rhLAG3 binding to MHCII on DAUDI cells. The method, then:
DAUDI cells express high levels of Major Histocompatibility Class II (MHCII) molecules, a natural ligand for LAG3, on the cell surface. DAUDI cells were used to screen for antibodies that inhibit binding of HIS-tagged (ACRO) or biotinylated recombinant human LAG3 protein (rhLAG3) to MHCII expressed on the cell surface.
DAUDI cells were cultured in RPMI w/10% FCS Pen/Strep and Gln and split every 3-4 days at 10^5 cells/ml. Cells were washed 2× with FACS buffer (PBS w/2% FCS), […] at a final concentration of 1×10⁶ cells/ml and seeded at 100 μl per well on 96 well polypropylene plates. Plates were spun at 1500 rpm for 5 minutes and cell pellets were suspended in 50 μl FACS buffer containing 8 point 1:3 dilutions (2× concentrated) of anti-LAG3 antibody variants, starting from high concentration of ˜600 nM. 50 μl FACS buffer containing 10-20 μg/ml of the HIS-tagged rhLAG3 protein or 40 μg/ml of the biotinylated rhLAG3 protein were then added to the cells. Cell were then incubated in ice for 1 hr, washed with FACS buffer and incubated for 1 hr in ice with 50 μl FACS buffer containing 2 μg/ml R-Phycoerythrin-conjugated Streptavidin (eBiosciences) or 1 μg/ml R-Phycoerythrin-conjugated anti-HIS IgG (Abcam). Cell were washed 2× with FACS buffer and fixed for 10 minutes in 200 μl PBS w/2% PFA prior to acquisition.
As to B3, the IC50 – broadly, the midpoint of a concentration-inhibition curve – was found to be 0.4 nM.

Regarding B5, the IC50 was 1.6 nM.
